What all share (assay): Primary Screen for Target Class Profiling of Small Molecule Inhibitors of Methyltransferases
For experiment [1], the target named is Glycine N-methyltransferase (Homo sapiens) (UniProt Q14749). Conditions: purified enzyme, MTase-Glo SAH luminescence; measured here: GNMT inhibition; at 40 µM; stronger effect = lower value. In short, it runs like this: (§1)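 Each enzyme was assayed with SAM and its substrate. SAH formation detected by MTase-Glo luminescence; single-point 40 uM screen[…].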

Experiment [2] concerns the target Guanidinoacetate N-methyltransferase (Homo sapiens) (UniProt Q14353). To be noted: purified enzyme, MTase-Glo SAH luminescence; measured here: GAMT inhibition; at 40 µM; stronger effect = lower value. Put shortly: as §1
Experiment [3] has as its target Histamine N-methyltransferase (Homo sapiens) (UniProt P50135). Conditions: purified enzyme, MTase-Glo SAH luminescence; measured here: HNMT inhibition; at 40 µM; stronger effect = lower value. Put shortly:
as §1

Experiment [4] deals with Nicotinamide N-methyltransferase (Homo sapiens) (UniProt P40261). Conditions: purified enzyme, MTase-Glo SAH luminescence; measured here: NNMT inhibition; at 40 µM; stronger effect = lower value. Put shortly: as §1
Experiment [5] deals with Phenylethanolamine N-methyltransferase (Homo sapiens) (UniProt P11086). Conditions: purified enzyme, MTase-Glo SAH luminescence; measured here: PNMT inhibition; at 40 µM; stronger effect = lower value. In short, it runs like this: as §1

This is one part of the list. Shown are side measurements of this screen, not its main read-out; they come without a call.
On the % scale 0 is the no-effect control and ±100 the full control effect.

As to `COc1ccc(OC)c2c1cc1n2CC(C)(C(=O)NC2CCCC2)N(Cc2ccc(F)cc2)C1=O` (stereo not given), the activity change, negative = inhibition in experiment [1] was found to be 8.53%; in experiment [2], 0%; in experiment [3] it was 11.3%; in experiment [4], 15.6%; in experiment [5], 4.94%.
For the compound `Cc1cc(Cl)ccc1NC(=O)CN(C)S(=O)(=O)c1ccc2[nH]c3c(c2c1)CCCC3`, the activity change, negative = inhibition in experiment [1] was -2.08%; in experiment [2] it was -3.49%; in experiment [3] it was 2.94%; in experiment [4] it was -4.09%; in experiment [5], -0.478%.
Take `CC(C)CC(=O)N1CCCCCC1c1nc(-c2ccncc2)no1` (stereo not given): the activity change, negative = inhibition is -5.3% in experiment [1]; -6.87% in experiment [2]; -3.35% in experiment [3]; -6.69% in experiment [4]; -4.32% in experiment [5].
In the case of `CCc1ccc(S(=O)(=O)c2nnn3c2nc(NCCC(C)C)c2ccccc23)cc1`, the activity change, negative = inhibition in experiment [1] was -1.35%; in experiment [2], 3.49%; in experiment [3], -1.35%; in experiment [4], 3.52%; in experiment [5], -4.47%.
As for `CC(C)c1nnc(C2CN(C(=O)Cc3ccccc3Cl)CC23CCOCC3)o1` (stereo not given), the activity change, negative = inhibition in experiment [1] is -0.662%; in experiment [2], 0.173%; in experiment [3], 0.088%; in experiment [4], 3.06%; in experiment [5], -2.47%.
Consider `CCCn1c(=O)c2ccc(C(=O)NC3CCCCC3)cc2n2c(=O)n(CC(=O)c3cc(C)ccc3C)nc12`, for which the activity change, negative = inhibition in experiment [1] amounted to 3.31%; in experiment [2], 0%; in experiment [3], 5.56%; in experiment [4] it was 1.36%; in experiment [5], 3.72%.
For `Cc1nnc(C(=O)NC(C)(C)c2nc(C(=O)NCc3ccc(F)cc3)c(O)c(=O)n2C)o1` the same measures were 7.08%, -1.88%, 3.17%, -15.8% and -3.64%.
Turning to `CC1(C(=O)NC2CCCCC2)Cn2nc(-c3cccs3)cc2C(=O)N1Cc1ccccc1` (stereo not given), the activity change, negative = inhibition is -5.39% in experiment [1]; 3.07% in experiment [2]; 4.62% in experiment [3]; -5.36% in experiment [4]; -2.88% in experiment [5].
As to `CC(C)Cn1c(=O)c2ccc(C(=O)NC3CCCCC3)cc2n2c(=O)n(CC(=O)NC3CCCC3)nc12`, the activity change, negative = inhibition in experiment [1] was 3.52%; in experiment [2] it was 4.62%; in experiment [3], 6.23%; in experiment [4] it was -0.393%; in experiment [5] it was -0.227%.
Turning to `CCOc1ccccc1CNC(=O)CCn1ccc2cc(S(=O)(=O)N3CCC(C)CC3)ccc21`, the activity change, negative = inhibition in experiment [1] is -8.09%; in experiment [2] it was -2.2%; in experiment [3] it was -10.4%; in experiment [4], -10.1%; in experiment [5], -5.42%.
Take `CC1(C(=O)NC2CCCCCCC2)Cn2c(ccc2-c2ccccc2)C(=O)N1Cc1cccs1` (stereo not given): the activity change, negative = inhibition in experiment [1] is -2.46%; in experiment [2] it was 0.405%; in experiment [3], -5.63%; in experiment [4], -8.68%; in experiment [5], -0.343%.
With `COc1ccc(NC(=O)Cn2c(=O)oc3cc(S(=O)(=O)N4CCC(C)CC4)ccc32)c(OC)c1`, the activity change, negative = inhibition in experiment [1] was -2.1%; in experiment [2], -2.63%; in experiment [3] it was -5.78%; in experiment [4], -16.4%; in experiment [5], -7.63%.
Regarding `COC(=O)c1ccc2c(c1)nc(NC(=O)c1ccccc1)n2CCCc1ccccc1`, the activity change, negative = inhibition in experiment [1] was -0.902%; in experiment [2], -4.87%; in experiment [3] it was 4.75%; in experiment [4] it was -13.8%; in experiment [5], 0.44%.
In the case of `COc1ccc(Cl)cc1C(=O)N1CCC2(CC1)CN(C)CCN2C`, the activity change, negative = inhibition was -1.47% in experiment [1]; 0.06% in experiment [2]; 1.19% in experiment [3]; 1.52% in experiment [4]; -0.82% in experiment [5].
Take `COCCCN1C(=O)c2ccc(-c3ccccc3)n2CC1(C)C(=O)NC1CCCCCCC1` (stereo not given): the activity change, negative = inhibition in experiment [1] is -7.1%; in experiment [2], -4.19%; in experiment [3] it was -5.79%; in experiment [4] it was -19.5%; in experiment [5], -1.62%.
In the same order, the values of `O=c1nc(-c2ccccn2)sc2ccccc12` are -2.16%, -5.31%, 2.97%, -16% and -0.383%.
Regarding `COc1ccc(CN2CC(c3nc(Cc4cccnc4)no3)C2)c(OC)c1`, the activity change, negative = inhibition in experiment [1] is -6.47%; in experiment [2] it was -1.61%; in experiment [3], -3.28%; in experiment [4] it was -50%; in experiment [5], 0.432%.
For `O=C(c1nc(-c2cccnc2)c2ccccn12)N1CCOCC1` the same measures were -8.15%, -8.71%, -3.38%, -10.5% and -4.34%.
With `Cc1ccc(Nc2ccn3c(=O)n(CC(=O)Nc4ccc(F)cc4C)nc3n2)cc1`, the activity change, negative = inhibition in experiment [1] was -1.12%; in experiment [2], 2.4%; in experiment [3] it was -6.49%; in experiment [4], -7.54%; in experiment [5], -8.22%.
In the case of `CC1CCN(c2cc(NC(=O)c3ccccc3)ncn2)CC1`, the activity change, negative = inhibition is 0.517% in experiment [1]; 6.27% in experiment [2]; 1.82% in experiment [3]; -17.3% in experiment [4]; -4.83% in experiment [5].
For `COc1ccc(Br)cc1CN1C(=O)c2ccc(-c3ccco3)n2CC1(C)C(=O)NCc1ccccc1` (stereo not given) the same measures were -2.33%, 0%, -1.66%, -4.66% and -5.36%.
On to `CC1(C(=O)NCc2ccccc2)Cn2cnc(C(=O)NCCc3cccs3)c2C(=O)N1C1CC1` (stereo not given), for which the activity change, negative = inhibition in experiment [1] was -5.99%; in experiment [2] it was 2.37%; in experiment [3], -3.5%; in experiment [4], -2.96%; in experiment [5], -1.95%.
For the compound `CCc1nc(-c2c3n(c(=O)n(CC(=O)Nc4cc(C)on4)c2=O)CCCC3)no1`, the activity change, negative = inhibition was -5.64% in experiment [1]; -6.85% in experiment [2]; -3.02% in experiment [3]; -14.2% in experiment [4]; 7.24% in experiment [5].
For the compound `CCC12CCCN3CCc4c(n(c5ccccc45)C(O)C1)C32` (stereo not given), the activity change, negative = inhibition was 4.36% in experiment [1]; 7.81% in experiment [2]; -45.1% in experiment [3]; -10.6% in experiment [4]; 5.91% in experiment [5].
Turning to `O=C(Cn1c(=O)n2nc(-c3ccccc3)nc2c2ccccc21)N1CCN(c2ccccc2F)CC1`, the activity change, negative = inhibition in experiment [1] was 10.8%; in experiment [2], 0%; in experiment [3], 10.9%; in experiment [4], 7.29%; in experiment [5], 4.52%.
For `NC[C@@H]1O[C@@H](O[C@@H]2[C@@H](O[C@@H]3O[C@H](CO)[C@@H](O)[C@H]3O)[C@H](O)[C@@H](N)C[C@H]2N)[C@@H](N)[C@H](O)[C@H]1O`, the activity change, negative = inhibition was 4.89% in experiment [1]; 8.69% in experiment [2]; 11.6% in experiment [3]; -3.26% in experiment [4]; 8.38% in experiment [5].
With `CN(CC(=O)NCc1ccccc1Cl)S(=O)(=O)c1ccc2[nH]c3c(c2c1)CCCC3`, the activity change, negative = inhibition was -9.82% in experiment [1]; -2.87% in experiment [2]; -11.9% in experiment [3]; -15.2% in experiment [4]; -24.2% in experiment [5].
With `COC[C@@H]1CN(C(=O)Cc2c(C)noc2C)C[C@H]1c1ccccn1`, the activity change, negative = inhibition was 2.5% in experiment [1]; -0.177% in experiment [2]; 1.18% in experiment [3]; -3.67% in experiment [4]; 11% in experiment [5].

The values above are taken from PubChem BioAssay AID1745853 (National Center for Advancing Translational Sciences (NCATS), 2022).
